In all, about 33,000 sequences were measured (“E-score (-0.5 to 0.5)”: median about -0.012, highest 2% from about 0.29 on). The list shows a part of the results.

The text below walks through data of the supplement of paper PMC3334620.

This assay concerns the target T1, Ybr033w (UniProt P38073).
T1 sequence: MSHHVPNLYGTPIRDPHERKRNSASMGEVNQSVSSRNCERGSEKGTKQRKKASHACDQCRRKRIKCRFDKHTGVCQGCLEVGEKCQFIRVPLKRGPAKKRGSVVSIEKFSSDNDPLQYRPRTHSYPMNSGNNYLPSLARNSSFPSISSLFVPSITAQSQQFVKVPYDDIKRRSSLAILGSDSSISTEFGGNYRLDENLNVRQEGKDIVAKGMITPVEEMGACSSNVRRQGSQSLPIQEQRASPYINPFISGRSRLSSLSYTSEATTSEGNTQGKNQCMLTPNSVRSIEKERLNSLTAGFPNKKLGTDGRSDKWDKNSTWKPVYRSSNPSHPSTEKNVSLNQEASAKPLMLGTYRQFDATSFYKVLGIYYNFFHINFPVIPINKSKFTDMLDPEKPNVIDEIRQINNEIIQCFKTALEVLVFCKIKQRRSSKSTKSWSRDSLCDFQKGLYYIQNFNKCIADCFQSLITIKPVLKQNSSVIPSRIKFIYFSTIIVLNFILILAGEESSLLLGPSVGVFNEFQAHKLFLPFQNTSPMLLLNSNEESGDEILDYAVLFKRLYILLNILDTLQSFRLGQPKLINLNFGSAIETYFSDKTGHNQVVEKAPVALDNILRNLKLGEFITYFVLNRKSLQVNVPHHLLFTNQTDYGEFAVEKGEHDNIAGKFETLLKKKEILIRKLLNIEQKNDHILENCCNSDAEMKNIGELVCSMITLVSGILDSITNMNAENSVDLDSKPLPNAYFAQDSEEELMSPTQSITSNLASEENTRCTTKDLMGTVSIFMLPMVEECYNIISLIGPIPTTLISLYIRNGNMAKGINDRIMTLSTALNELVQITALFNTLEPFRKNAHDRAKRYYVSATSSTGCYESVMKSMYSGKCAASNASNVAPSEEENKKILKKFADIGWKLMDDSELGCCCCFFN
Put plainly: PBM E-score (8-mer binding enrichment) (E-score (-0.5 to 0.5)); higher = stronger / more preferred TF binding; most listed sequences are background and not binding sites. Conditions: protein concentration: 200 nM; construct: GST-full length. An outline of the steps: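 Universal all-10-mer Agilent arrays, double-stranded by primer extension on fresh or once-stripped slides, were probed with about 100-200 nM GST-tagged yeast transcription factors made by PURExpress. Fluorescent anti-GST detected bound protein, and masliner normalised the scans. E-scores from the Universal PBM Analysis Suite were given to each ungapped eight-base word pooled with its reverse complement.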
GCGATGGA: the “PBM E-score” value is -0.0765.

In the case of CCACTAGA, the “PBM E-score” value is -0.154.

Regarding CCGGCTAC, the “PBM E-score” value is -0.152.

Consider AGACTGTC, for which the “PBM E-score” value was -0.167.

As to ACGTGGAG, the “PBM E-score” value was -0.0122.

As to CCCACGAG, the “PBM E-score” value was -0.05.

With CTTGCCTC, the “PBM E-score” value is -0.182.

CCTCTTCG: the “PBM E-score” value is -0.0407.

Regarding ATGCCCTA, the “PBM E-score” value is -0.0692.

Consider CTGACGCC, for which the “PBM E-score” value is -0.259.

As to AAAGGTAG, the “PBM E-score” value was -0.0571.

Turning to CTGCCCCC, the “PBM E-score” value was -0.314.

For ACCACCTA, the “PBM E-score” value was -0.178.

For ATCCCTAG, the “PBM E-score” value was 0.0382.

In the case of ACGCGGTC, the “PBM E-score” value was -0.106.

As to CACTGAAC, the “PBM E-score” value is 0.171.

Regarding GCATTGCA, the “PBM E-score” value is 0.00754.

As to AAGGGCAC, the “PBM E-score” value was -0.249.

In the case of CGGAGTCC, the “PBM E-score” value is -0.107.

Regarding CGCGGCTA, the “PBM E-score” value was 0.0286.

Consider ACGCAACC, for which the “PBM E-score” value is -0.138.

AGCTCATG: the “PBM E-score” value is 0.0152.

Take CTCTAAAG: the “PBM E-score” value is -0.0599.

Turning to ACTCATAA, the “PBM E-score” value was determined as 0.16.

On to AAGAGCCA, for which the “PBM E-score” value is -0.0198.

With GACACATC, the “PBM E-score” value is -0.11.

With CCTTTTAA, the “PBM E-score” value is -0.0359.

Regarding CTGCGATA, the “PBM E-score” value is -0.0208.

For GGGATGTA, the “PBM E-score” value amounted to 0.00478.

On to AAGAGACC, for which the “PBM E-score” value amounted to 0.0597.

For the sequence ATCCAATG, the “PBM E-score” value stood at 0.0291.

On to CTCATGGA, for which the “PBM E-score” value is -0.0851.

In the case of GGGGAAAC, the “PBM E-score” value was -0.083.

As to ACGACCGA, the “PBM E-score” value is -0.0431.

In the case of GTATTGAC, the “PBM E-score” value is 0.0204.

With GACACTCC, the “PBM E-score” value was -0.0616.

CCAGGAGC: the “PBM E-score” value was -0.302.

For the sequence CAATCGAA, the “PBM E-score” value was determined as 0.0884.

Regarding CAAGCCCA, the “PBM E-score” value was -0.18.

For the sequence TAGAGGCA, the “PBM E-score” value is -0.0846.

For the sequence GTTTCTCA, the “PBM E-score” value was 0.0503.

On to AACTGGTG, for which the “PBM E-score” value was -0.23.

As to CACCATCA, the “PBM E-score” value was 0.0127.

Turning to AAGCTGGA, the “PBM E-score” value is -0.132.

TAAAGGGA: the “PBM E-score” value was -0.0178.

Turning to AGATACGG, the “PBM E-score” value was determined as 0.021.

In the case of AAGTCCGA, the “PBM E-score” value was 0.00405.

As for GATATAGC, the “PBM E-score” value was 0.156.

Consider ATCATTCG, for which the “PBM E-score” value was found to be 0.119.

For the sequence TACCAGCA, the “PBM E-score” value turned out to be 0.08.

For the sequence CACCATAA, the “PBM E-score” value was determined as 0.123.

With GGGAGCAC, the “PBM E-score” value is -0.195.

For GTATTTTA, the “PBM E-score” value was determined as 0.23.

On to GTCTAGGA, for which the “PBM E-score” value amounted to 0.0443.

Take AGGTGTGG: the “PBM E-score” value is -0.277.

On to ACCTGTGA, for which the “PBM E-score” value was 0.102.

Consider AGATGGCG, for which the “PBM E-score” value came out at 0.17.

Regarding ATAAGTCA, the “PBM E-score” value worked out at 0.265.

Turning to TCTGAGAA, the “PBM E-score” value was 0.0455.

Turning to ACTTATAA, the “PBM E-score” value came to 0.305.

Take CAAGCCCG: the “PBM E-score” value is -0.186.

In the case of ATCGCGAG, the “PBM E-score” value was 0.0733.

Turning to AGTAGCAG, the “PBM E-score” value worked out at 0.0821.

In the case of GATTGTAC, the “PBM E-score” value was 0.0766.

For CCAATACA, the “PBM E-score” value is 0.0951.

Regarding GAAGTTAC, the “PBM E-score” value amounted to 0.236.

For TCATGAGA, the “PBM E-score” value came to 0.0183.

Consider CATGACGA, for which the “PBM E-score” value was -0.0691.

For CAAAGGAG, the “PBM E-score” value was -0.0306.

AAACGTGT: the “PBM E-score” value is -0.0456.

For ATAAAGAG, the “PBM E-score” value was 0.169.

For GACGGCCA, the “PBM E-score” value is -0.184.

On to GCGCCGTA, for which the “PBM E-score” value was -0.0822.

In the case of CACTGATG, the “PBM E-score” value was -0.0895.

As to CCCTGCCC, the “PBM E-score” value is -0.376.

With GCTTTGTA, the “PBM E-score” value amounted to 0.192.

With ATTGCATG, the “PBM E-score” value amounted to 0.125.

As for CAAGCCGC, the “PBM E-score” value was -0.159.

As for ACTTTGAG, the “PBM E-score” value worked out at 0.0497.

As for AACGATCC, the “PBM E-score” value is -0.0104.

Take AGTAAATG: the “PBM E-score” value came out at 0.198.

On to ACGGTACA, for which the “PBM E-score” value is 0.029.

With ATCCCGTC, the “PBM E-score” value was -0.0397.

For the sequence CAGTCCTC, the “PBM E-score” value is -0.256.

As for AAGGGGGT, the “PBM E-score” value is -0.316.

As to AATGGTCG, the “PBM E-score” value amounted to 0.0305.
